Laboratory results published in doi:10.1101/2020.04.27.064493 (bioRxiv, 2020).

Key:
[1] = biological target: human DNMT1 RFTS domain (residues 351-597) (human, UniProt P26358 351-597); experiment: ITC
[2] = biological target: human DNMT1 RFTS domain (residues 351-597) W465A (human, UniProt P26358 351-597, W465A); experiment: ITC

Kd [1] | fold reduction of affinity against wild-type hDNMT1 RFTS [2] | Binder
1.3 µM | ~17 fold | histone H3 peptide ([…]) trimethylated at K9 (trimethyl-lysine at K9) peptide: not shown
6.4 µM | ~5 fold | histone H3 peptide ([…]), unmodified (peptide) peptide: not shown
